Hit rate of the full screen: of about 410,000 compounds, about 7,200 (1.8%) were called active. Inconclusive results, whose numbers are uncertain, are shown with a selection of clear calls. Calls come from the whole dose curve; as a rule, active = well fitted activation curve with a large enough effect; inconclusive = small, poorly fitted or top-dose-only effect, or another doubt; inactive = no such curve, though single readings can be large or run the other way. No potency is given beside an inconclusive call; the fits are too rough.
Assay: qHTS of TDP-43 Inhibitors; note: nearly all actives have a fitted effect of over 50% in size
Conditions: TDP-43 expressing yeast growth rescue, BacTiter-Glo, 24 h; series mostly up to 46.1 µM
How it was run: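 Readout is BacTiter-Glo luminescence of cell growth, so inhibitors register as activators. TDP-43-expressing yeast at OD600=0.02 in galactose medium, after raffinose pregrowth to mid-log, were incubated with compound for 24 hr at 30 deg C.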
Potency is the fitted concentration of half-maximal effect; tags give direction and shape of the fitted curve.

Compound	Potency
Cn1c(=NC(=O)C2CC2)sc2cc(F)cc(F)c21	inconclusive [activator, partial curve, poor fit]
COc1ccc(CNc2nc(C)cc(C)c2C#N)cc1	inconclusive [activator, partial curve]
Fc1ccc(-c2cc(C(F)(F)F)nc(NCC3CCCO3)n2)cc1 (stereo not given)	inconclusive [activator, single point]
CCC(=O)c1ccc(CCCCCC(=O)O)s1	inconclusive [activator, single point]
Cc1ccccc1NC(=O)CCC(=O)N1CC(C)Sc2ccccc21 (stereo not given)	inconclusive [activator, single point]
CCOc1ccc(NC(=O)COC(=O)CC2CC3CCC2C3)cc1 (stereo not given)	inactive
CC[C@]12c3[nH]c4ccccc4c3CCN1C(=O)C(CC(=O)NCCCn1ccnc1)C[C@@H]2C(=O)N1CCN(C(=O)c2ccco2)CC1 (stereo not given in full)	inactive
O=C(CSCc1ccccc1)Nc1ccc(F)c(F)c1	inconclusive [activator, partial curve]
Cc1ccccc1CNC(=O)Cn1cnc(S(=O)(=O)N2CCCC2)c1	inactive
O=C(c1ccc(N2CCN(C(=O)c3ccc(F)cc3F)CC2)cc1)c1cccc(F)c1	active: 17.8 µM
CN1CCN(C(=O)C2=C[C@H](c3ccc4c(c3)OCO4)C[C@H](OCCCCO)O2)CC1	inconclusive [activator, partial curve]
Cc1cc(NC(=O)COC(=O)[C@@H](NS(=O)(=O)c2ccccc2)C(C)C)no1	inactive
Cn1c(OCc2cccnc2)nc2c1c(=O)n(Cc1ccc(Br)cc1)c(=O)n2C	inconclusive [activator, partial curve]
O=C(NC1CCCCCC1)c1ccc(CS(=O)(=O)Cc2ccccc2F)o1	inactive
CS(=O)(=O)c1ccc(NC(=O)CCN2C(=O)NC3(CCCC3)C2=O)cc1	inconclusive [activator, partial curve]
Cc1ccc(C(=O)O/N=C(\N)c2ccccn2)c(C)c1	inconclusive [activator, single point]
CN(Cc1ccccc1F)c1cc2c(c3c1ccn3C)C1CCC2O1 (stereo not given)	inconclusive [activator, partial curve]
CC(C)c1noc(-c2ccccc2OCC(=O)Nc2ccccc2[N+](=O)[O-])n1	inconclusive [activator, single point]
COC(=O)c1ccccc1N=Nc1c(C)noc1C	inactive
CCN(CC)CCN(C(=O)c1ccc2c(c1)OCCO2)c1nc2c(Cl)cccc2s1	inconclusive [activator, partial curve]

— PubChem BioAssay AID652104 (National Center for Advancing Translational Sciences (NCATS), 2013)
